{
  "source": "the supplement of paper PMC6089552",
  "system": "A673/TR/shEF",
  "test": "cell viability (LOESS-normalised, relative to median of negative controls) (log2 ratio); higher = more viable cells (less compound effect), active = hit call of the paper (over 3 MAD below the median)",
  "details": "treatment time: 72 h",
  "summary_of_the_method": "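For three days, A673/TR/shEF Ewing sarcoma cells in 384-well plates (1,500 per well) were treated with library compounds at two or more concentrations or with DMSO controls, after doxycycline had been added or withheld 24 h beforehand to induce EWS-FLI1 shRNA knockdown. Viability was read by CellTiter-Glo luminescence on an Envision reader. The data were LOESS-corrected per plate, divided by the median of negative controls and log2-transformed.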",
  "key": {"[1]": {"details": "0.25 µM, library screen: screen1, EWS-FLI1 expression: high (no doxycycline)"}, "[2]": {"details": "0.25 µM, library screen: screen1, EWS-FLI1 expression: low (doxycycline-induced shRNA knockdown)"}, "[3]": {"details": "2.5 µM, library screen: screen1, EWS-FLI1 expression: high (no doxycycline)"}, "[4]": {"details": "2.5 µM, library screen: screen1, EWS-FLI1 expression: low (doxycycline-induced shRNA knockdown)"}, "[5]": {"details": "0.25 µM, library screen: screen2, EWS-FLI1 expression: high (no doxycycline)"}, "[6]": {"details": "0.25 µM, library screen: screen2, EWS-FLI1 expression: low (doxycycline-induced shRNA knockdown)"}, "[7]": {"details": "2.5 µM, library screen: screen2, EWS-FLI1 expression: high (no doxycycline)"}, "[8]": {"details": "2.5 µM, library screen: screen2, EWS-FLI1 expression: low (doxycycline-induced shRNA knockdown)"}},
  "note": "Out of some 3,200 compounds screened, about 300 (9.4%) showed activity. The entries are a selection whose mix differs from that of the whole data set.",
  "data": [
    {"smiles": "CCC(CCC(C)C1CCC2C3CCC4CC(O)CCC4(C)C3CCC12C)C(C)C", "note": "(stereo not drawn)", "values": [
      {"measurement": "cell viability (log2)", "setting": "[1]", "result": "inactive: 0.125"},
      {"measurement": "cell viability (log2)", "setting": "[2]", "result": "inactive: 0.0954"},
      {"measurement": "cell viability (log2)", "setting": "[3]", "result": "inactive: 0.131"},
      {"measurement": "cell viability (log2)", "setting": "[4]", "result": "inactive: 0.00436"}
    ]},
    {"smiles": "CCOC(=O)[C@H](CCc1ccccc1)N[C@@H](C)C(=O)N1[C@H](C(=O)O)C[C@@H]2CCC[C@@H]21", "values": [
      {"measurement": "cell viability (log2)", "setting": "0.103 µM, library screen: screen3, EWS-FLI1 expression: high (no doxycycline)", "result": "inactive: 0.119"},
      {"measurement": "cell viability (log2)", "setting": "0.103 µM, library screen: screen3, EWS-FLI1 expression: low (doxycycline-induced shRNA knockdown)", "result": "inactive: 0.0378"},
      {"measurement": "cell viability (log2)", "setting": "0.308 µM, library screen: screen3, EWS-FLI1 expression: high (no doxycycline)", "result": "inactive: 0.0824"},
      {"measurement": "cell viability (log2)", "setting": "0.308 µM, library screen: screen3, EWS-FLI1 expression: low (doxycycline-induced shRNA knockdown)", "result": "inactive: 0.0741"},
      {"measurement": "cell viability (log2)", "setting": "0.926 µM, library screen: screen3, EWS-FLI1 expression: high (no doxycycline)", "result": "inactive: 0.124"},
      {"measurement": "cell viability (log2)", "setting": "0.926 µM, library screen: screen3, EWS-FLI1 expression: low (doxycycline-induced shRNA knockdown)", "result": "inactive: 0.0619"},
      {"measurement": "cell viability (log2)", "setting": "2.8 µM, library screen: screen3, EWS-FLI1 expression: high (no doxycycline)", "result": "inactive: 0.108"},
      {"measurement": "cell viability (log2)", "setting": "2.8 µM, library screen: screen3, EWS-FLI1 expression: low (doxycycline-induced shRNA knockdown)", "result": "inactive: 0.1"},
      {"measurement": "cell viability (log2)", "setting": "8.3 µM, library screen: screen3, EWS-FLI1 expression: high (no doxycycline)", "result": "inactive: 0.105"},
      {"measurement": "cell viability (log2)", "setting": "8.3 µM, library screen: screen3, EWS-FLI1 expression: low (doxycycline-induced shRNA knockdown)", "result": "inactive: 0.0239"},
      {"measurement": "cell viability (log2)", "setting": "25 µM, library screen: screen3, EWS-FLI1 expression: high (no doxycycline)", "result": "inactive: 0.0963"},
      {"measurement": "cell viability (log2)", "setting": "25 µM, library screen: screen3, EWS-FLI1 expression: low (doxycycline-induced shRNA knockdown)", "result": "inactive: 0.1"}
    ]},
    {"smiles": "CCOc1ccc2c(c1)C(C)=CC(C)(C)N2", "values": [
      {"measurement": "cell viability (log2)", "setting": "[1]", "result": "inactive: 0.0986"},
      {"measurement": "cell viability (log2)", "setting": "[2]", "result": "inactive: 0.15"},
      {"measurement": "cell viability (log2)", "setting": "[3]", "result": "inactive: 0.163"},
      {"measurement": "cell viability (log2)", "setting": "[4]", "result": "inactive: 0.295"}
    ]},
    {"smiles": "C#CCCCCCCCCCCCC(O)CC(O)CO.C=CCCCCCCCCCCCC(O)CC(O)CO", "note": "(stereo not drawn)", "values": [
      {"measurement": "cell viability (log2)", "setting": "[1]", "result": "inactive: -0.0366"},
      {"measurement": "cell viability (log2)", "setting": "[2]", "result": "inactive: 0.0109"},
      {"measurement": "cell viability (log2)", "setting": "[3]", "result": "inactive: 0.0828"},
      {"measurement": "cell viability (log2)", "setting": "[4]", "result": "inactive: -0.0815"}
    ]},
    {"smiles": "CCCCCCCCCCCCCCCC(=O)O[C@H](CC(=O)[O-])C[N+](C)(C)C", "values": [
      {"measurement": "cell viability (log2)", "setting": "25 µM, library screen: screen1, EWS-FLI1 expression: high (no doxycycline)", "result": "active: -0.454"},
      {"measurement": "cell viability (log2)", "setting": "25 µM, library screen: screen1, EWS-FLI1 expression: low (doxycycline-induced shRNA knockdown)", "result": "active: -0.672"}
    ]},
    {"smiles": "Cn1c(=O)c2[nH]c(C3CCCC3)nc2n(C)c1=O", "values": [
      {"measurement": "cell viability (log2)", "setting": "[1]", "result": "inactive: 0.052"},
      {"measurement": "cell viability (log2)", "setting": "[2]", "result": "inactive: 0.108"},
      {"measurement": "cell viability (log2)", "setting": "[5]", "result": "inactive: 0.109"},
      {"measurement": "cell viability (log2)", "setting": "[6]", "result": "inactive: 0.0676"},
      {"measurement": "cell viability (log2)", "setting": "[3]", "result": "inactive: 0.0537"},
      {"measurement": "cell viability (log2)", "setting": "[4]", "result": "inactive: 0.132"},
      {"measurement": "cell viability (log2)", "setting": "[7]", "result": "inactive: 0.149"},
      {"measurement": "cell viability (log2)", "setting": "[8]", "result": "inactive: 0.131"}
    ]},
    {"smiles": "CC(C)COCC(CN(Cc1ccccc1)c1ccccc1)N1CCCC1", "note": "(stereo not drawn)", "values": [
      {"measurement": "cell viability (log2)", "setting": "[5]", "result": "inactive: 0.21"},
      {"measurement": "cell viability (log2)", "setting": "[6]", "result": "inactive: 0.11"},
      {"measurement": "cell viability (log2)", "setting": "[7]", "result": "inactive: 0.0761"},
      {"measurement": "cell viability (log2)", "setting": "[8]", "result": "inactive: 0.0529"}
    ]},
    {"smiles": "Clc1ccc(CN2CCN(Cc3c[nH]c4ccccc34)CC2)cc1", "values": [
      {"measurement": "cell viability (log2)", "setting": "[1]", "result": "inactive: 0.142"},
      {"measurement": "cell viability (log2)", "setting": "[2]", "result": "inactive: 0.175"},
      {"measurement": "cell viability (log2)", "setting": "[3]", "result": "inactive: 0.152"},
      {"measurement": "cell viability (log2)", "setting": "[4]", "result": "inactive: 0.116"}
    ]},
    {"smiles": "COC1=CC(=O)OC(CCc2ccc(OC)c(OC)c2)C1", "note": "(stereo not drawn)", "values": [
      {"measurement": "cell viability (log2)", "setting": "[1]", "result": "inactive: 0.144"},
      {"measurement": "cell viability (log2)", "setting": "[2]", "result": "inactive: -0.00163"},
      {"measurement": "cell viability (log2)", "setting": "[3]", "result": "inactive: 0.181"},
      {"measurement": "cell viability (log2)", "setting": "[4]", "result": "inactive: 0.0406"}
    ]},
    {"smiles": "COc1ccc(C2COc3c(ccc(O)c3OC)C2)c(OC)c1O", "note": "(stereo not drawn)", "values": [
      {"measurement": "cell viability (log2)", "setting": "[1]", "result": "inactive: 0.108"},
      {"measurement": "cell viability (log2)", "setting": "[2]", "result": "inactive: 0.0205"},
      {"measurement": "cell viability (log2)", "setting": "[3]", "result": "inactive: 0.0667"},
      {"measurement": "cell viability (log2)", "setting": "[4]", "result": "inactive: -0.00772"}
    ]},
    {"smiles": "CN[C@H](CC(C)C)C(=O)N[C@H]1C(=O)N[C@@H](CC(N)=O)C(=O)N[C@H]2C(=O)N[C@H]3C(=O)N[C@H](C(=O)N[C@H](C(=O)O)c4cc(O)cc(O)c4-c4cc3ccc4O)[C@H](O)c3ccc(c(Cl)c3)Oc3cc2cc(c3O[C@@H]2O[C@H](CO)[C@@H](O)[C@H](O)[C@H]2O[C@H]2C[C@](C)(N)[C@H](O)[C@H](C)O2)Oc2ccc(cc2Cl)[C@H]1O", "values": [
      {"measurement": "cell viability (log2)", "setting": "[1]", "result": "inactive: 0.0548"},
      {"measurement": "cell viability (log2)", "setting": "[2]", "result": "inactive: 0.0418"},
      {"measurement": "cell viability (log2)", "setting": "[5]", "result": "inactive: 0.165"},
      {"measurement": "cell viability (log2)", "setting": "[6]", "result": "inactive: 0.049"},
      {"measurement": "cell viability (log2)", "setting": "[3]", "result": "inactive: 0.0898"},
      {"measurement": "cell viability (log2)", "setting": "[4]", "result": "inactive: 0.0418"},
      {"measurement": "cell viability (log2)", "setting": "[7]", "result": "inactive: 0.202"},
      {"measurement": "cell viability (log2)", "setting": "[8]", "result": "inactive: 0.119"}
    ]}
  ]
}
